# Whole data set: some 4,500 sequences, median “median log2 fold change of GCK-ALFA target abundance (FLAG IP / Myc IP barcode read proportion)” near 0.078, cut for the lowest 2% near -0.6. Some of the results follow.
# B1: GBRAP_11_2726 (protein)
# chain: RKETILKFAKEAEALAKEIEKLIKEGPTKEGLEKLAKKAKALYEAAKKAGLPEDIVETLKIAAELLKEAIADPKNAEKYLREAAAAFRVAAGLLLLEAEE
# B2: GBRAP_160_4065 (protein)
# chain: EEELEKLKKEIDEIVEEAIEMMKDETHEQRVTIARVMKGEVVLLLSEDENVSEEAEDEADEIGDETVETIENNPDLTLEEIEKLLRETAEKIKEALDKHS
# B3: GBRAP_117_2592 (protein)
# chain: SATREAARAKIRATVAEVEALFKELAGLSPEEQAEALAAMRERVKAVLREVIEELGEEEAEELLDEALLDTDAETYFFLESVREDTLEELEEEEEEEERE
# B4: GBRAP_80_6842 (protein)
# chain: AQAALAAARARLYALLPEAAPLVDEVIALARELGVPDSVIADYVAALAELAAEDPERARELLEELLADLKELKAEGDYANAEAVLRGYAGDALMEAEELR
# B5: GBRAP_128_3284 (protein)
# chain: MDEELLAEAKALIDQIVNGPLEEVPALTRRLAELLEQMSDEERDKVVDYFEKEAEKMSEEKLEAVMDELERLRPQMSPLVQNYVADMMTILGEQLLELEE
# B6: GBRAP_80_6822 (protein)
# chain: MEEELEANLKALEAVDPEIAKIVREIVEIARELGVPLETLVRLAKAILELAKVDKEKARELAEELLEELREEREEGDREGALAELVDAESEALLEVEELE
# B7: GBRAP_128_3285 (protein)
# chain: MDEERLEEAFELIEKIRDSELEEVPALTAELVELMEKMSEEELDLVLEYFEEEAEKMSEEKLEAVMDTLRELRPTASPLVQNYLADMMVVLGEKLLELEE
# B8: GBRAP_128_3187 (protein)
# chain: SVEEVKKKTREAMEKIKNSDKETAEKIAKELFESLLTLSLEEAEAAIEVIEEKLPEFSKEKLEIIADVAREYRPKADPEKARLIAGLEVEALNEIEELEE
# B9: GBRAP_166_4894 (protein)
# chain: AVEEAIKRIKAIADETIKNIEELTEEEIQEAFIEIAEIVREAGRSEELIKTAAEETTRIVEAAVKAGFDWETLKSLALAAFGDDEELLDTLEKELEKSKK
# B10: GBRAP_122_2944 (protein)
# chain: GARQAELEALIDAMIAALAAGDDAALAAAARALVALFATVTPEEARAAIEALIERLAPDPEALERALQALLAAFYEQQPQTPAQEAAADLVAERFDELSE
# B11: GBRAP_128_3360 (protein)
# chain: LDEELLAKAKELVEAMKTADVEETKALTKEVIALMAEADPETAEAIAEIIIEALPEFSAEKLEAIADAIREAMPKADPYKANLLAEVEVEALNEAVEKEE
# B12: GBRAP_14_3768 (protein)
# chain: MEEIEKILKEASERIIELLSELAPEKAEEFEKAVKEITEEAIKRIRETGKAEETMEEAREELIARIDEILKGYPAEVQAQARAIVDVELGQAILEIDELL
# B13: GBRAP_160_4820 (protein)
# chain: EEKVKKVFELIDEYFEEALELVEGETAEQRAVVVAVVGGQLLLDLSEDESVSDELEDKVDEIIDELVEEILANPDLTDEELRELIEKAAEEIKEAAKEDF
# B14: GBRAP_64_6486 (protein)
# chain: EEEIKKLHEETLKQAKKLVELLKDSSEELQKQAKEVLELIEKSKEASLEEAAKLLAEAAKLLNELLKSPELTEEQKDQVAETLDLVSELLWLVVEKELEK
# B15: GBRAP_160_4178 (protein)
# chain: SEKIEEAEEEIEEIFEEAYEMMKGQTAEERAAIVDVAFGEIILYLEEKGLLTDETEAKIDEIRDETVSYILANPDLTDEELRELLEEAAEEIIEALRENS
# B16: GBRAP_160_4340 (protein)
# chain: SEEIEKLIKYINEEFERTKKLIEGETIEQRKVIIDGTFGEIAMELAEDESVSDETVDKVLEIRDETIAYLDENPDLTEEEIKKLIDEAREKIIEILKESE
# B17: GBRAP_95_7046 (protein)
# chain: EDDQLAFDSLAEVLETYLDLGDEERAERAARELVRLWKEGGFLPVPSSLSPESAVLVVRAAAEELDPESTARLKARVVEASGDPALAERLDAVIAEVRAA
# B18: GBRAP_52_6008 (protein)
# chain: MREEIREVLEKALELVKEGKEEEAYKLLLEKVKSLNEEEVELLVEELAELAAEAPLEDFDAVWKLAELAAEALEEAGKDEALADELLARVAAALYEREQR
# B19: GBRAP_128_3169 (protein)
# chain: MSEEIVEEVKKLVEEMLKANKEEFKKLAEKIVEIIGKADLETAEKIVEIIIENLPKFSEEKLEILIDVIRKQMPKFTPEKQELLAEVAVEAGERILELEE
# B20: GBRAP_9_7142 (protein)
# chain: MKEVIDKIIELAEEAKEDALAIAPEEYKPLVKAKYDEFIDALKALKADPNTTLEEIRKTSEEQIEKIKKTFKAELPADLAKQLEAILLTLEEEIEEILES
# B21: GBRAP_150_3923 (protein)
# chain: DIEELETIVSTALDLALGIKDGEYSLVPAAIKLAKDALEESEELPEELKEKLKKLLTEAIKKLEAIKAGAPEEERKKLVKEAVELMEEALKLVEEYKKKQ
# B22: GBRAP_11_2938 (protein)
# chain: SMEEIEKATKKLVEAAEEGAAYLDAHPDETRLPKELLEKLEKAVKELQKVVNEEEAEELKEELELLLELIEEGAPAAEIAAALRVLAGEALLILEELEEK
# B23: GBRAP_52_5905 (protein)
# chain: MRARLRADLEEIIAAVRAGDLEAARAKARELAETYDDEELELAAEELAALVLEAPREDLPAWWRTAEIIAEALEEAGRDEVLADLVLSRTAAAIHEVLQR
# B24: GBRAP_78_6615 (protein)
# chain: KKKEEILKKLDEAAELLREIRKKQPELADEAADAETLVGTAIYMLDTEEESLEELKEQVEEALKALKELKKKLKDAPKEVQKLAEEAEKLVQEALKLLKE
# B25: GBRAP_160_4145 (protein)
# chain: SEEIEELIKEIREIAEEALEMIEGESPEEAKTIARVAFGEIVMLVDSNEAVSEETEEKVGEIAREAEARLDANPDLSVEEVKELLREATEKVVKVLEEEK
# B26: GBRAP_78_6604 (protein)
# chain: EVEELIDKAIEHLDKASKLTKELNEEDQNELQDLIVEALSELLESLENGPNLENIKEAIKYLEEALKKVKELNKEEAKKIEEELKKAIEYLKKAEELLKK
# B27: GBRAP_166_4985 (protein)
# chain: MQEEIVERARKEIEELAEQMKTANDEEQTELIIEIAEVIRKAKEEGVSDEKLLELVRHALELAKELGLNVKVVAGIIAEVSEFDEEMREKIDEIAEEVAA
# B28: GBRAP_95_7029 (protein)
# chain: EDDELAAASLVEVIETYLDLGDEEKARRAAEELVRLMVEEGFVPLPKGISVETAKLIVEEAYKILDEETFEKLFEVILSSLEKEEDKEKVKKYYEELKKE
# B29: GBRAP_160_4396 (protein)
# chain: SEKMEKLKKEIDEIFDEAEEMIEGESPEERKVIVRVMFGEVLLEVEENEEVSDELEDEFGELLDEYEKKAQEAVEKGLEELKEVLEEAREELNELIDKND
# Biological target: GABARAP, O95166
# Assay: median log2 fold change of GCK-ALFA target abundance (FLAG IP / Myc IP barcode read proportion) (log2 ratio); each designed protein is fused to an ALFA-tag nanobody in HEK293 cells to bring the named protein to FLAG-tagged glucokinase (GCK); Myc marks an untargeted standard; higher = target protein stabilised (more abundant)
# Conditions: target protein: 3xFLAG-MCP-GCK-ALFA reporter; HEK293 landing pad (RPLP)
# How it was run: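 An ALFA-nanobody-fused binder library was recombined into HEK293 landing-pad cells and induced with 2 μg mL^−1 doxycycline. Cells were transfected with a plasmid expressing a FLAG-tagged target and a Myc-tagged standard. After 48 h, lysates underwent anti-FLAG and anti-Myc immunoprecipitation, and circular RNA barcodes were reverse transcribed, amplified and sequenced. Target abundance is the per-binder median log2 ratio of FLAG to Myc barcode read proportions. Barcodes needed ≥10^−7 proportion in both replicates, binders ≥3 barcodes per replicate, and a 10^−6 pseudocount was added; the two replicates were pooled.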
# Chain of GABARAP, O95166 (O95166 whole entry, the tested form may be a part): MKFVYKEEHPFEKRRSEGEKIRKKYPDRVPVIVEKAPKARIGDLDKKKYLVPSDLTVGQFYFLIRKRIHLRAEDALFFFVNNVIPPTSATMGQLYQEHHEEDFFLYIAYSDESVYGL
row,Binder,median log2 fold change
1,B1,0.0545
2,B2,-0.103
3,B3,0.191
4,B4,-0.0772
5,B5,0.0184
6,B6,-0.574
7,B7,-0.339
8,B8,0.435
9,B9,0.269
10,B10,0.224
11,B11,0.0821
12,B12,0.235
13,B13,-0.219
14,B14,0.19
15,B15,-0.598
16,B16,-0.259
17,B17,0.184
18,B18,-0.00364
19,B19,0.0148
20,B20,0.159
21,B21,0.0166
22,B22,-0.101
23,B23,-0.658
24,B24,0.247
25,B25,0.248
26,B26,0.152
27,B27,0.257
28,B28,0.0288
29,B29,-0.19
